Test results taken from US7160888B2, “[1,8]naphthyridin-2-ones and related compounds for the treatment of schizophrenia” (Warner Lambert Company LLC, priority 2003, dated 2007).

Biological target: dopamine D2 receptor (Homo sapiens, UniProt P14416)
Test: biochemical
Conditions: D2 Ki (nM), 0.4 nM [3H]spiperone, CHO-hD2L membranes

UniProt P14416, sequence (P14416 whole entry): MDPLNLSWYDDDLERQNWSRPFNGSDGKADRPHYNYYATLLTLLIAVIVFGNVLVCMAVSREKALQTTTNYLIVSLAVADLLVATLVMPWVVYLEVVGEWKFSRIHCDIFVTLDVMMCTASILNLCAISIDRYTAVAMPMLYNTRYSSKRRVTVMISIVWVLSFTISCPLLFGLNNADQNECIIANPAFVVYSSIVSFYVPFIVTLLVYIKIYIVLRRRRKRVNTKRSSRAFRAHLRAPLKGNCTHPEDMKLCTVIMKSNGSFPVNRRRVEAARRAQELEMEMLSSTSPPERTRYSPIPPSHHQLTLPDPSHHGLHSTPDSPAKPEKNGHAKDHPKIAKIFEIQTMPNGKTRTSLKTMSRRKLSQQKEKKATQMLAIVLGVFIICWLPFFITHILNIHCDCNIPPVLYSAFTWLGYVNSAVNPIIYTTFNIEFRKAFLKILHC

SMILES	Ki (Table 1) [nM]	Ki (Table 2) [nM]
O=C1CCc2cc(Br)c(OCCCCN3CCN(c4cccc(Cl)c4Cl)CC3)nc2N1 [Example E7, 6-Bromo-7-{4-[4-(2,3-dichloro-phenyl)-piperazin-1-yl]-butoxy}-3,4-dihydro-1H-[1,8]naphthyridin-2-one]	6.3	–
O=C1CCc2cc(Br)c(OCCCCN3CCN(c4cccc5ccccc45)CC3)nc2N1 [Example E8, 6-Bromo-7-[4-(4-naphthalen-1-yl-piperazin-1-yl)-butoxy]-3,4-dihydro-1H-[1,8]naphthyridin-2-one]	1.4	–
Cc1cc(OCCCCN2CCN(c3cccc(Cl)c3Cl)CC2)nc2c1CCC(=O)N2 [Example E9, 7-{4-[4-(2,3-Dichloro-phenyl)-piperazin-1-yl]-butoxy}-5-methyl-3,4-dihydro-1H-[1,8]naphthyridin-2-one]	1.4	–
Cc1cc(OCCCCN2CCN(c3cccc4ccccc34)CC2)nc2c1CCC(=O)N2 [Example E10, 5-Methyl-7-[4-(4-naphthalen-1-yl-piperazin-1-yl)-butoxy]-3,4-dihydro-1H-[1,8]naphthyridin-2-one]	1	–
Cc1cc(OCCCCN2CCN(c3cccc4c3CCCC4)CC2)nc2c1CCC(=O)N2 [Example E11, 5-Methyl-7-{4-[4-(5,6,7,8-tetrahydro-naphthalen-1-yl)-piperazin-1-yl]-butoxy}-3,4-dihydro-1H-[1,8]naphthyridin-2-one]	1	–
Cc1cc(OCCCCN2CCN(c3cccc4c3CCC4)CC2)nc2c1CCC(=O)N2 [Example E12, 7-[4-(4-Indan-4-yl-piperazin-1-yl)-butoxy]-5-methyl-3,4-dihydro-1H-[1,8]naphthyridin-2-one]	1	–
O=C1CCc2c(C(F)(F)F)cc(OCCCCN3CCN(c4cccc5c4CCC5)CC3)nc2N1 [Example E13, 7-[4-(4-Indan-4-yl-piperazin-1-yl)-butoxy]-5-trifluoromethyl-3,4-dihydro-1H-[1,8]naphthyridin-2-one]	5	–
O=C1CCc2c(C(F)(F)F)cc(OCCCCN3CCN(c4cccc5ccccc45)CC3)nc2N1 [Example E14, 7-[4-(4-Naphthalen-1-yl-piperazin-1-yl)-butoxy]-5-trifluoromethyl-3,4-dihydro-1H-[1,8]naphthyridin-2-one]	28.5	–
O=C1CCc2c(C(F)(F)F)cc(OCCCCN3CCN(c4cccc5c4CCCC5)CC3)nc2N1 [Example E15, 7-{4-[4-(5,6,7,8-Tetrahydro-naphthalen-1-yl)-piperazin-1-yl]-butoxy}-5-trifluoromethyl-3,4-dihydro-1H-[1,8]naphthyridin-2-one]	39.8	–
O=C1NCc2ccc(OCCCCN3CCN(c4cccc(Cl)c4Cl)CC3)nc2N1 [Example F1, 7-{4-[4-(2,3-Dichloro-phenyl)-piperazin-1-yl]-butoxy}-3,4-dihydro-1H-pyrido[2,3-d]pyrimidin-2-one]	0.6	–
Cc1ccc2cccc(N3CCN(CCCCOc4ccc5c(n4)NC(=O)CO5)CC3)c2n1 [Example F1′, 6-{4-[4-(2-Methyl-quinolin-8-yl)-piperazin-1-yl]-butoxy}-4H-pyrido[3,2-b][1,4]oxazin-3-one]	–	0.7
O=C1NCc2ccc(OCCCCN3CCN(c4cccc5ccccc45)CC3)nc2N1 [Example F2, 7-[4-(4-Naphthalen-1-yl-piperazin-1-yl)-butoxy]-3,4-dihydro-1H-pyrido[2,3-d]pyrimidin-2-one]	1	–
O=C1COc2ccc(OCCCCN3CCN(c4cccc5cccnc45)CC3)nc2N1 [Example F2′, 6-[4-(4-Quinolin-8-yl-piperazin-1-yl)-butoxy]-4H-pyrido[3.2-b][1,4]oxazin-3-one]	–	2.4
O=C1NCc2ccc(OCCCCN3CCN(c4cccc5c4CCC5)CC3)nc2N1 [Example F3, 7-[4-(4-Indan-4-yl-piperazin-1-yl)-butoxy]-3,4-dihydro-1H-pyrido[2,3-d]pyrimidin-2-one]	0.8	–
O=C1COc2ccc(OCCCCN3CCN(c4cccc5c4NC(=O)CC5)CC3)nc2N1 [Example F3′, 6-{4-[4-(2-Oxo-1,23,4-tetrahydro-quinolin-8-yl)-piperazin-1-yl]-butoxy}-4H-pyrido[3,2-b][1,4]oxazin-3-one]	–	10.1
O=C1NCc2ccc(OCCCCN3CCN(c4cccc5c4CCCC5)CC3)nc2N1 [Example F4, 7-{4-[4-(5,6,7,8-Tetrahydro-naphthalen-1-yl)-piperazin-1-yl]-butoxy}-3,4-dihydro-1H-pyrido[2,3-d]pyrimidin-2-one]	1.4	–
O=C1COc2ccc(OCCCCN3CCN(c4cccc5c4OCCC5)CC3)nc2N1 [Example F4′, 6-[4-(4-Chroman-8-yl-piperazin-1-yl)-butoxy]-4H-pyrido[3,2-b][1,4]oxazin-3-one]	–	1
O=C1NCc2ccc(OCCCCN3CCN(c4cccc5ccc(F)cc45)CC3)nc2N1 [Example F5, 7-{4-[4-(7-Fluoro-naphthalen-1-yl)-piperazin-1-yl]-butoxy}-3,4-dihydro-1H-pyrido[2,3-d]pyrimidin-2-one]	1	–
O=C1COc2ccc(OCCCCN3CCN(c4cccc5c4OCCO5)CC3)nc2N1 [Example F5′, 6-{4-[4-(2,3-Dihydro-benzo[1,4]dioxin-5-yl)-piperazin-1-yl]-butoxy}-4H-pyrido[3,2-b][1,4]oxazin-3-one]	–	0.8

SMILES	Ki (Table 1) [nM]	Ki (Table 2) [nM]
N#Cc1ccc2cccc(N3CCN(CCCCOc4ccc5c(n4)NC(=O)NC5)CC3)c2c1 [Example F6, 8-{4-[4-(2-Oxo-1,2,3,4-tetrahydro-pyrido[2,3-d]pyrimidin-7-yloxy)-butyl]-piperazin-1-yl}-naphthalene-2-carbonitrile]	0.6	–
CN1Cc2ccc(OCCCCN3CCN(c4cccc(Cl)c4Cl)CC3)nc2NC1=O [Example F7, 7-{4-[4-(2,3-Dichloro-phenyl)-piperazin-1-yl]-butoxy}-3-methyl-3,4-dihydro-1H-pyrido[2,3-d]pyrimidin-2-one]	0.5	–
CN1Cc2ccc(OCCCCN3CCN(c4cccc5ccccc45)CC3)nc2NC1=O [Example F8, 3-Methyl-7-[4-(4-naphthalen-1-yl-piperazin-1-yl)-butoxy]-3,4-dihydro-1H-pyrido[2,3-d]pyrimidin-2-one]	1	–
CC1(C)OC(=O)Nc2nc(CCCCCN3CCN(c4cccc(Cl)c4Cl)CC3)ccc21 [Example F9, 7-{5-[4-(2,3-Dichloro-phenyl)-piperazin-1-yl]-pentyl}-4,4-dimethyl-1,4-dihydro-pyrido[2,3-d][1,3]oxazin-2-one]	3.9	–
O=C1COc2ccc(CCCCCN3CCN(c4cccc(Cl)c4Cl)CC3)nc2N1 [Example G1, 6-{5-[4-(2,3-Dichloro-phenyl)-piperazin-1-yl]-pentyl}-4H-pyrido[3,2-b][1,4]oxazin-3-one]	7.5	–
O=c1ccc2cnc(OCCCCN3CCN(c4cccc5c4OCCO5)CC3)nc2[nH]1 [Example G1′, 2-{4-[4-(2,3-Dihydro-benzo[1,4]dioxin-5-yl)-piperazin-1-yl]-butoxy}-8H-pyrido[2,3-d]pyrimidin-7-one]	–	10
O=C1COc2ccc(CCCCCN3CCN(c4cccc5c4CCCC5)CC3)nc2N1 [Example G2, 6-{5-[4-(5,6,7,8-Tetrahydro-naphthalen-1-yl)-piperazin-1-yl]-pentyl}-4H-pyrido[3,2-b][1,4]oxazin-3-one]	3.9	–
O=c1ccc2cnc(OCCCCN3CCN(c4cccc5c4OCCC5)CC3)nc2[nH]1 [Example G2′, 2-[4-(4-Chroman-8-yl-piperazin-1-yl)-butoxy]-8H-pyrido[2,3-d]pyrimidin-7-one]	–	3.5
O=C1COc2ccc(OCCCCN3CCN(c4cccc(Cl)c4Cl)CC3)nc2N1 [Example G3, 6-{4-[4-(2,3-Dichloro-phenyl)-piperazin-1-yl]-butoxy}-4H-pyrido[3,2-b][1,4]oxazin-3-one]	1.4	–
O=c1ccc2cnc(OCCCCN3CCN(c4cccc5cccnc45)CC3)nc2[nH]1 [Example G3′, 2-[4-(4-Quinolin-8-yl-piperazin-1-yl)-butoxy]-8H-pyrido[2,3-d]pyrimidin-7-one]	–	17.6
O=C1COc2ccc(OCCCCN3CCN(c4cccc5c4CCC5)CC3)nc2N1 [Example G4, 6-[4-(4-Indan-4-yl-piperazin-1-yl)-butoxy]-4H-pyrido[3,2-b][1,4]oxazin-3-one]	0.7	–
O=c1ccc2cnc(OCCCCN3CCN(c4cccc5c4OCC5)CC3)nc2[nH]1 [Example G4′, 2-{4-[4-(2,3-Dihydro-benzofuran-7-yl)-piperazin-1-yl]-butoxy}-8H-pyrido[2,3-d]pyrimidin-7-one]	–	9
O=C1COc2ccc(OCCCCN3CCN(c4cccc5ccccc45)CC3)nc2N1 [Example G5, 6-[4-(4-Naphthalen-1-yl-piperazin-1-yl)-butoxy]-4H-pyrido[3,2-b][1,4]oxazin-3-one]	0.6	–
O=c1ccc2cnc(OCCCCN3CCN(c4cccc5c4OCCCO5)CC3)nc2[nH]1 [Example G5′, 2-{4-[4-(3,4-Dihydro-2H-benzo[b][1,4]dioxepin-6-yl)-piperazin-1-yl]-butoxy}-8H-pyrido[2,3-d]pyrimidin-7-one]	–	8.5
COc1cccc(N2CCN(CCCCOc3ccc4c(n3)NC(=O)CO4)CC2)n1 [Example G6, 6-{4-[4-(6-Methoxy-pyridin-2-yl)-piperazin-1-yl]-butoxy}-4H-pyrido[3,2-b][1,4]oxazin-3-one]	66.7	–
CC1(C)CCc2cccc(N3CCN(CCCCOc4ncc5ccc(=O)[nH]c5n4)CC3)c2O1 [Example G6′, 2-{4-[4-(2,2-Dimethyl-chroman-8-yl)-piperazin-1-yl]-butoxy}-8H-pyrido[2,3-d]pyrimidin-7-one]	–	0.7
O=C1COc2ccc(OCCCCN3CCN(c4cccc5ccc(F)cc45)CC3)nc2N1 [Example G7, 6-{4-[4-(7-Fluoro-naphthalen-1-yl)-piperazin-1-yl]-butoxy}-4H-pyrido[3,2-b][1,4]oxazin-3-one]	0.8	–
O=c1ccc2cnc(OCCCCN3CCN(c4cccc5c4OC(F)(F)O5)CC3)nc2[nH]1 [Example G7′, 2-{4-[4-(2,2-Difluoro-benzo[1,3]dioxol-4-yl)-piperazin-1-yl]-butoxy}-8H-pyrido[2,3-d]pyrimidin-7-one]	–	1.4
CC1(C)Cc2cccc(N3CCN(CCCCOc4ncc5ccc(=O)[nH]c5n4)CC3)c2O1 [Example G8′, 2-{4-[4-(2,2-Dimethyl-2,3-dihydro-benzofuran-7-yl)-piperazin-1-yl]-butoxy}-8H-pyrido[2,3-d]pyrimidin-7-one]	–	2.5
